In general, IC50 refers to the concentration at which inhibition is half-maximal.

By IC50 is meant the dose at which the fit gives 50% viability; where the fit passes the top or lowest dose, that dose stands as a limit. AUC, from the same fit, is the share of area under the viability curve across the 256-fold dose range; the more sensitive the line, the further below 1. The top dose, if marked as inferred, is not printed in the source and was worked back from the curve model. A value given as a limit tells only on which side of the number the result lay.

Compound in the experiment: CCn1cc(-c2ccnc3[nH]c(-c4cccc(CN(C)C)c4)cc23)c(-c2ccc(NC(=O)N(C)C)cc2)n1 [GSK1070916]
As to the kind of experiment: Viability of human cancer cell lines after 72 h of drug (GDSC screen). Particulars: top dose inferred. Here is the method:
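Human cancer cell lines in 384-well plates, medium with 10% serum, drug for 72 h over a 256-fold dose range (nine 2-fold or five 4-fold steps up to the top dose). Adherent lines were fixed and stained with the nucleic acid dye Syto60, suspension lines read with resazurin; signal relative to control wells, capped at 0 and 100%. One two-parameter sigmoid per drug and line, fitted in a mixed model over all curves with the slope shared within a line.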
For the cell line “PANC-03-27 (pancreas, adherent, top dose 2.56 µM)”, the AUC amounted to 0.946 and the half-inhibitory concentration (IC50) was over 2560 nM.

For the cell line “PANC-04-03 (pancreas, adherent, top dose 2.56 µM)”, the AUC worked out at 0.954 and the IC50 is over 2560 nM.

On to “PANC-08-13 (pancreas, adherent, top dose 2.56 µM)”, for which the AUC stood at 0.935 and the half-maximal inhibitory concentration (IC50) was over 2560 nM.

With “PANC-10-05 (pancreas, adherent, top dose 2.56 µM)”, the AUC is 0.903 and the IC50 is over 2560 nM.

On to “PC-3 (prostate, adherent, top dose 2.56 µM)”, for which the AUC was determined as 0.927 and the half-maximal inhibitory concentration (IC50) is over 2560 nM.

As for “PC-3 [JPC-3] (lung adenocarcinoma, adherent, top dose 2.56 µM)”, the AUC amounted to 0.936 and the IC50 was over 2560 nM.

As for “PC-14 (lung adenocarcinoma, adherent, top dose 2.56 µM)”, the AUC worked out at 0.921 and the half-maximal inhibitory concentration (IC50) was over 2560 nM.

With “PCI-4B (head and neck, adherent, top dose 2.56 µM)”, the AUC came out at 0.908 and the half-inhibitory concentration (IC50) is over 2560 nM.

Take “PCI-15A (head and neck, adherent, top dose 2.56 µM)”: the AUC is 0.965 and the 50% inhibitory concentration (IC50) is over 2560 nM.

“PCI-30 (head and neck, adherent, top dose 2.56 µM)”: the AUC stood at 0.984 and the 50% inhibitory concentration (IC50) was over 2560 nM.

For the cell line “PCI-38 (head and neck, adherent, top dose 2.56 µM)”, the AUC was found to be 0.971 and the IC50 is over 2560 nM.

In the case of “PE/CA-PJ15 (head and neck, adherent, top dose 2.56 µM)”, the AUC is 0.972 and the IC50 is over 2560 nM.

In the case of “PEO1 (ovary, adherent, top dose 2.56 µM)”, the AUC came to 0.943 and the IC50 is over 2560 nM.

Turning to “PF-382 (T-cell lymphoblastic leukaemia, suspension, top dose 2.56 µM)”, the AUC was determined as 0.083 and the concentration for half-maximal inhibition (IC50) is under 10 nM.

As for “PFSK-1 (medulloblastoma, adherent, top dose 2.56 µM)”, the AUC was found to be 0.962 and the concentration for half-maximal inhibition (IC50) was over 2560 nM.

In the case of “PL4 (pancreas, adherent, top dose 2.56 µM)”, the AUC amounted to 0.986 and the 50% inhibitory concentration (IC50) was over 2560 nM.

Regarding “PL18 (pancreas, adherent, top dose 2.56 µM)”, the AUC turned out to be 0.988 and the IC50 is over 2560 nM.

For “PL-21 (acute myeloid leukaemia, suspension, top dose 2.56 µM)”, the AUC is 0.776 and the half-inhibitory concentration (IC50) was 1190 nM.

In the case of “PSN1 (pancreas, adherent, top dose 2.56 µM)”, the AUC turned out to be 0.88 and the IC50 worked out at 1940 nM.

Consider “QGP-1 (pancreas, adherent, top dose 2.56 µM)”, for which the AUC was found to be 0.854 and the half-maximal inhibitory concentration (IC50) was over 2560 nM.

As for “QIMR-WIL (acute myeloid leukaemia, suspension, top dose 2.56 µM)”, the AUC came to 0.377 and the 50% inhibitory concentration (IC50) came to 74 nM.

Consider “RC-K8 (B-cell lymphoma, suspension, top dose 2.56 µM)”, for which the AUC is 0.993 and the IC50 was over 2560 nM.

For the cell line “RCC10RGB (kidney, adherent, top dose 10.24 µM)”, the AUC was found to be 0.823 and the half-inhibitory concentration (IC50) was over 10200 nM.

For “RCC-AB (kidney, adherent, top dose 2.56 µM)”, the AUC worked out at 0.902 and the IC50 is over 2560 nM.

For the cell line “RCC-ER (kidney, adherent, top dose 2.56 µM)”, the AUC was 0.984 and the IC50 is over 2560 nM.

As for “RCC-FG2 (kidney, adherent, top dose 2.56 µM)”, the AUC came to 0.961 and the 50% inhibitory concentration (IC50) was over 2560 nM.

“RCC-JF (kidney, adherent, top dose 2.56 µM)”: the AUC was determined as 0.955 and the concentration for half-maximal inhibition (IC50) was over 2560 nM.

In the case of “RCC-JW (kidney, adherent, top dose 2.56 µM)”, the AUC was determined as 0.933 and the 50% inhibitory concentration (IC50) was over 2560 nM.

For the cell line “RCC-MF (kidney, adherent, top dose 2.56 µM)”, the AUC worked out at 0.898 and the IC50 was over 2560 nM.

In the case of “RCM-1 (large intestine, adherent, top dose 2.56 µM)”, the AUC turned out to be 0.973 and the IC50 was over 2560 nM.

Consider “RD (rhabdomyosarcoma, adherent, top dose 2.56 µM)”, for which the AUC stood at 0.937 and the IC50 is over 2560 nM.

Regarding “REH (B-cell leukaemia, suspension, top dose 2.56 µM)”, the AUC amounted to 0.097 and the IC50 is under 10 nM.

With “RERF-GC-1B (stomach, adherent, top dose 2.56 µM)”, the AUC was determined as 0.812 and the IC50 is 1570 nM.

“RERF-LC-KJ (lung adenocarcinoma, adherent, top dose 2.56 µM)”: the AUC turned out to be 0.963 and the IC50 is over 2560 nM.

Consider “RERF-LC-MS (lung adenocarcinoma, adherent, top dose 2.56 µM)”, for which the AUC turned out to be 0.982 and the IC50 is over 2560 nM.

Consider “RERF-LC-Sq1 (lung squamous cell carcinoma, adherent, top dose 2.56 µM)”, for which the AUC turned out to be 0.885 and the IC50 was over 2560 nM.

On to “RF-48 (stomach, adherent, top dose 2.56 µM)”, for which the AUC was 0.882 and the IC50 is over 2560 nM.

In the case of “RH-1 (rhabdomyosarcoma, adherent, top dose 2.56 µM)”, the AUC turned out to be 0.103 and the IC50 amounted to 11.4 nM.

In the case of “RH-18 (rhabdomyosarcoma, adherent, top dose 2.56 µM)”, the AUC worked out at 0.838 and the concentration for half-maximal inhibition (IC50) stood at 2090 nM.

Consider “RH-41 (rhabdomyosarcoma, adherent, top dose 2.56 µM)”, for which the AUC was determined as 0.943 and the IC50 was over 2560 nM.

Turning to RKN (ovary, adherent, top dose 2.56 µM), the AUC worked out at 0.983 and the concentration for half-maximal inhibition (IC50) was over 2560 nM.

For “RKO (large intestine, adherent, top dose 2.56 µM)”, the AUC worked out at 0.857 and the half-maximal inhibitory concentration (IC50) stood at 1850 nM.

As for “RL95-2 (endometrium, adherent, top dose 2.56 µM)”, the AUC came out at 0.986 and the concentration for half-maximal inhibition (IC50) was over 2560 nM.

Regarding “RL (B-cell lymphoma, suspension, top dose 2.56 µM)”, the AUC is 0.925 and the 50% inhibitory concentration (IC50) is over 2560 nM.

In the case of “RMG-I (ovary, adherent, top dose 2.56 µM)”, the AUC amounted to 0.924 and the half-inhibitory concentration (IC50) is over 2560 nM.

Regarding “RO82-W-1 (thyroid, adherent, top dose 2.56 µM)”, the AUC worked out at 0.983 and the 50% inhibitory concentration (IC50) is over 2560 nM.

In the case of “ROS-50 (B-cell leukaemia, suspension, top dose 2.56 µM)”, the AUC worked out at 0.933 and the 50% inhibitory concentration (IC50) was over 2560 nM.

In the case of “RPMI-2650 (head and neck, adherent, top dose 2.56 µM)”, the AUC turned out to be 0.934 and the concentration for half-maximal inhibition (IC50) was over 2560 nM.

For “RPMI-6666 (Hodgkin lymphoma, suspension, top dose 2.56 µM)”, the AUC is 0.763 and the half-maximal inhibitory concentration (IC50) stood at 1100 nM.

For “RPMI-7951 (melanoma, adherent, top dose 2.56 µM)”, the AUC is 0.925 and the IC50 was over 2560 nM.

“RPMI-8226 (myeloma, suspension, top dose 2.56 µM)”: the AUC came out at 0.91 and the IC50 is over 2560 nM.

On to “RPMI-8402 (T-cell lymphoblastic leukaemia, suspension, top dose 2.56 µM)”, for which the AUC turned out to be 0.141 and the IC50 came out at 16 nM.

Take “RPMI-8866 (chronic myeloid leukaemia, suspension, top dose 2.56 µM)”: the AUC was found to be 0.988 and the 50% inhibitory concentration (IC50) was over 2560 nM.

Regarding “RS4-11 (leukaemia, suspension, top dose 2.56 µM)”, the AUC was found to be 0.033 and the IC50 was under 10 nM.

For “RT4 (bladder, adherent, top dose 2.56 µM)”, the AUC turned out to be 0.838 and the 50% inhibitory concentration (IC50) was 1870 nM.

“RT-112 (bladder, adherent, top dose 2.56 µM)”: the AUC amounted to 0.432 and the IC50 stood at 103 nM.

On to “RVH-421 (melanoma, adherent, top dose 2.56 µM)”, for which the AUC turned out to be 0.894 and the IC50 was over 2560 nM.

Turning to “RXF393 (kidney, adherent, top dose 2.56 µM)”, the AUC is 0.864 and the concentration for half-maximal inhibition (IC50) is over 2560 nM.

As for “Raji (Burkitt lymphoma, suspension, top dose 2.56 µM)”, the AUC came to 0.99 and the IC50 was over 2560 nM.

For the cell line “Ramos-2G6-4C10 (Burkitt lymphoma, suspension, top dose 2.56 µM)”, the AUC was found to be 0.873 and the concentration for half-maximal inhibition (IC50) worked out at 1860 nM.

Consider “SAS (head and neck, adherent, top dose 2.56 µM)”, for which the AUC worked out at 0.946 and the concentration for half-maximal inhibition (IC50) was over 2560 nM.

For “SAT (head and neck, adherent, top dose 2.56 µM)”, the AUC was determined as 0.918 and the IC50 was over 2560 nM.

Take “SBC-1 (small cell lung carcinoma, suspension, top dose 2.56 µM)”: the AUC is 0.974 and the concentration for half-maximal inhibition (IC50) was over 2560 nM.

In the case of “SBC-3 (small cell lung carcinoma, adherent, top dose 2.56 µM)”, the AUC was 0.811 and the IC50 worked out at 1210 nM.

For the cell line “SBC-5 (small cell lung carcinoma, adherent, top dose 2.56 µM)”, the AUC was 0.993 and the 50% inhibitory concentration (IC50) was over 2560 nM.

The values above are taken from the supplement of paper PMC4967469.
